Data from publication PMC10148413.
Results are given in words; binding and its absence hold for the method and conditions named. Some results given as binding are weak or reduced against the parent protein; the word gives no strength. Where a sequence is shown, tags or fusion partners need not be part of it.

Target: T1, 6× His-tagged Ash1 (1041–2226 a.a.) (fly) (UniProt Q9VW15)
T1 sequence: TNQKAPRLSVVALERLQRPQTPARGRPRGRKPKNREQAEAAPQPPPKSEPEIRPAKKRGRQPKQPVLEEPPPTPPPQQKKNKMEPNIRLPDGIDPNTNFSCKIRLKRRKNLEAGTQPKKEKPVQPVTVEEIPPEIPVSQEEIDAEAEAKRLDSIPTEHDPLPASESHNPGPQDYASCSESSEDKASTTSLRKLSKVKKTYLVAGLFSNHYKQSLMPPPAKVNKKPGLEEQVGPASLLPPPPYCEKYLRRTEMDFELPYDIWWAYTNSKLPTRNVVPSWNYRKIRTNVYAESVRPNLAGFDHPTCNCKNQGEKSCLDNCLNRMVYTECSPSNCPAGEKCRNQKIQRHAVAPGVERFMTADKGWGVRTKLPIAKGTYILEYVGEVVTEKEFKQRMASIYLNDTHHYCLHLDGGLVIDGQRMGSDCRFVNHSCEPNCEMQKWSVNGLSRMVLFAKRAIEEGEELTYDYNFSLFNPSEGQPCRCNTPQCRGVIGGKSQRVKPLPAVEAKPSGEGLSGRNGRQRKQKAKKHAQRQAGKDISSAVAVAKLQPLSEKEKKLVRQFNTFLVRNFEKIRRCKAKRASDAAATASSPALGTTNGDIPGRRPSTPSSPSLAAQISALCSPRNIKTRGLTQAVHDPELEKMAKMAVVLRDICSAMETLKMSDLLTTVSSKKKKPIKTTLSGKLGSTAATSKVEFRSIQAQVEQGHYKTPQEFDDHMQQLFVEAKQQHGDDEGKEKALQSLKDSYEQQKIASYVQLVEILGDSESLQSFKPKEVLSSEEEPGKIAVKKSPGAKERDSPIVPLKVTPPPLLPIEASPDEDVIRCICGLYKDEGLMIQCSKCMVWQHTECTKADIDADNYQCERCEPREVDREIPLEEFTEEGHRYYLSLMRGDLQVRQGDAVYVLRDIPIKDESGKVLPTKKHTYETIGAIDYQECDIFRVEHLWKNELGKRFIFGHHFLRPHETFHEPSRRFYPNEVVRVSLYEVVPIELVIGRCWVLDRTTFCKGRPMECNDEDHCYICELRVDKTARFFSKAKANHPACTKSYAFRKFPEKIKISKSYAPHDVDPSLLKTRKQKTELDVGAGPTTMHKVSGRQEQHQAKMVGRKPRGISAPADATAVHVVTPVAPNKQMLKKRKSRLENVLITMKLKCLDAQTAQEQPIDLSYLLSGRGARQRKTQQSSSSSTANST
Assay: co-purification (Ni-NTA, HiTrap Q HP, Superdex 200); His-tagged Ash1 (1041-2226), Mrg15 and Caf1 co-expressed in Sf9 cells; Ni-NTA with washes up to 1 M NaCl, tag cut by TEV, ion exchange and size exclusion in 300 mM NaCl, 50 mM Tris-HCl (8.0)

B1: full-length Mrg15 (protein, UniProt Q9Y0I1 1-424)
chain: MGEVKPAKVENYSTGTDANTLFVDGERVLCFHGPLIYEAKVLKTKPDATPVEYYIHYAGWSKNWDEWVPENRVLKYNDDNVKRRQELARQCGERSKKDNKKGSAKAKKMEQMRNESRASTPSKDSNTSQSTASSTPTTSAGPGSKSEAGSTGTTTTNSTANSTTSRAHRKSTQSTPSTARPGTPSDKKEDPAAAETTEEEGPVAPKKKRMSEQRPSLTGSDVAEKPLPPTTTPSTPTTEPAPCVESEEAYAAKVEVKIKIPDELKHYLTDDWYAVVREHKLLELPAKVTVQQISEQYLAHKKSVKSTSASKEVAINDVLDGIVEYFNVMLGSQLLYKFERTQYADVMQKHPDTPLSELYGSFHLLRLFVRLGSMLSYSALDQQSMQNLLTHVQDFLKFLVKNSSIFFSMSNFINVDPEYVRNAQ
- binding: binds
